Data published in article PMC4336329 (PLoS ONE, 2015).
Out of some 310,000 compounds screened, about 2,200 (0.71%) showed an effect of 50% or more. Effects have a minus sign here. This is one part of the list.

molecular target: human ether-à-go-go-related gene (hERG) potassium channel (human, UniProt Q12809); assay: primary screen, population patch clamp on CHO cells stably expressing hERG
Sequence (Q12809 whole entry, looked up): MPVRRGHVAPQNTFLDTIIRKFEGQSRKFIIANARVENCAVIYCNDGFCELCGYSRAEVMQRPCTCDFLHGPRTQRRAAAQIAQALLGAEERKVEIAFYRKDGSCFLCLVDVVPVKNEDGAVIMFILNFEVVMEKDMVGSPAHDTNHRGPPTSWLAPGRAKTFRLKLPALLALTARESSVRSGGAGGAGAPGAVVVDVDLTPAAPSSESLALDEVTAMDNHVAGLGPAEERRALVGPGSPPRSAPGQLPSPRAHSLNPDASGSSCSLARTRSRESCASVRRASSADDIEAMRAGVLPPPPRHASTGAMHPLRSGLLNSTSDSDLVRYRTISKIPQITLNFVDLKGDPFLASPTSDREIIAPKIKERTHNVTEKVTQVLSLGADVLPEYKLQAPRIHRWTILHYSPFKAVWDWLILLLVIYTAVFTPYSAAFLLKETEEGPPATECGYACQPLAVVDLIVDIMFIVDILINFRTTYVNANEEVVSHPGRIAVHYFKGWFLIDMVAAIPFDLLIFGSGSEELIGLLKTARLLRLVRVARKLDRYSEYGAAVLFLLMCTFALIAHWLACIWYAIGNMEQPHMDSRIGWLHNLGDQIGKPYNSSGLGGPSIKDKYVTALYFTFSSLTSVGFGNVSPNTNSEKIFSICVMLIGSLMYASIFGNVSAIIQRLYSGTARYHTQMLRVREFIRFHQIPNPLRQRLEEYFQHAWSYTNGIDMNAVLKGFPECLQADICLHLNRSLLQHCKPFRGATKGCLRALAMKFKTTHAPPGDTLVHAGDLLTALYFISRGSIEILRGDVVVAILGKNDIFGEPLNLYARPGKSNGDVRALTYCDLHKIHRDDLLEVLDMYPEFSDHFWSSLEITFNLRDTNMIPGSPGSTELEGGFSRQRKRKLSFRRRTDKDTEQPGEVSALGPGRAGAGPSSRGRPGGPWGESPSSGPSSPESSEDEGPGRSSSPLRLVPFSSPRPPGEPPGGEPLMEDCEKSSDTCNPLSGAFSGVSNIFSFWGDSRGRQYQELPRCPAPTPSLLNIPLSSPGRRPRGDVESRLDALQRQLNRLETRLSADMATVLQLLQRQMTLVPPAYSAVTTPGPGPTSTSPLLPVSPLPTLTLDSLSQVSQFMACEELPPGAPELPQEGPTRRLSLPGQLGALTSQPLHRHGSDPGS

Row | SMILES | hERG current change (%, negative = inhibition) at 1uM [%]
1 | CCC(C)c1ccccc1NC(=O)C(C)NCCN(C)C.O=C(O)C(=O)O (centres unmarked) | 15.9
2 | N#CCC(=O)N/N=C/c1cc([N+](=O)[O-])ccc1N1CCCC1 | 5.24
3 | CCOC(=O)c1c(NC(=O)CN2CCOCC2)sc2c1CC(C)(C)OC2 | 11.7
4 | Cc1ccccc1NC(=O)CSc1nc(O)cc(=O)n1C | -16.9
5 | CN(Cc1cnccn1)Cc1nc(Cc2ccccc2Cl)no1 | 9.75
6 | O=C(CCc1ccccn1)N1CCCC(N2CCN(c3cccc(C(F)(F)F)c3)CC2)C1 (centres unmarked) | -16.2
7 | O=C(c1cc(-c2ccccc2)on1)N1CCN(c2ccccc2)CC1 | 13.5
8 | Cc1cccc(NC(=O)CSCC(=O)N2CCCc3ccccc32)c1 | 6.82
9 | CCCCN(C(=O)CSc1nn(-c2ccc(F)cc2)c(=S)s1)c1c(N)n(CCCC)c(=O)[nH]c1=O | 8.15
10 | O=C(CNC(=O)c1ccco1)OCC(=O)c1ccc([N+](=O)[O-])cc1 | 14.9
11 | CCOc1ccccc1OCC(=O)NNC(=S)NC1CCCCC1 | 2.31
12 | Cc1ccc(C)c(CSC2=NCCN2C(=O)Cc2ccc([N+](=O)[O-])cc2)c1 | 11.1
13 | CN1CCN(/N=C/c2ccc(-c3ccc([N+](=O)[O-])cc3Cl)o2)CC1 | -9.76
14 | CC1(NC(=O)CSc2nnc(-c3ccco3)n2Cc2ccccc2)CCS(=O)(=O)C1 (centres unmarked) | 9.18
15 | C=CCn1c2ccccc2c2nnc(SCC(=O)Nc3cc(C)on3)nc21 | 3.22
16 | COc1ccccc1NC(=O)Cn1c(=O)sc2ccccc21 | -4.2
17 | CCOC(=O)C1(CCc2ccccc2)CCN(Cc2cccc3c2OCO3)CC1 | -63.7
18 | CC(C)Cc1nnc(NC(=O)CCC(=O)NC2CCCCCC2)s1 | -14.3
19 | Cc1ccc(CN2CCSc3ccc(C(=O)N4CCN(c5ncccn5)CC4)cc32)cc1 | 10.8

Row | SMILES | hERG current change (%, negative = inhibition) at 1uM [%]
20 | CCOC(=O)[C@H]1[C@H]2COc3ccc(OC)cc3[C@@H]2N2C(=O)c3ccccc3NC(=O)[C@@]12C | 6.02
21 | CC(=O)N(Cc1cc(=O)[nH]c2ccccc12)c1ccccc1 | 13.3
22 | CC1(C)N(O)CC(c2cccs2)=[N+]1[O-] | 12.9
23 | CCc1ccc(NC(=O)N(CCN(C)C)C(C)c2cccnc2)cc1 (centres unmarked) | 6.09
24 | Cc1nnc(SCc2ccc(CSc3nnc(C)c(=O)[nH]3)cc2)[nH]c1=O | 12
25 | CC1(c2ccccc2)NC(=O)N(CC(=O)Nc2cc(S(=O)(=O)N3CCOCC3)ccc2Cl)C1=O (centres unmarked) | 4.96
26 | COc1ccc(CNc2oc(-c3cccc4ccccc34)nc2C#N)cc1 | 11.3
27 | CC1CCN(CC(=O)c2ccc3c(c2)OCCO3)CC1.O=C(O)C(=O)O | 8.81
28 | Cc1ccc(-c2cc(-c3nnc(SCC(=O)N(C)CCC#N)n3N)c3ccccc3n2)cc1 | 9.95
29 | Cc1ccc(CCC(=O)Nc2ccc(Br)cc2)o1 | 7.8
30 | Cc1ccc(Cl)c2c(N=Nc3ccccc3)c(O)[nH]c12 | 11
31 | CCCCCc1cc(=O)oc2c(C(CCN3CCCC(C)C3)c3cc(OC)c(OC)c(OC)c3)c(OC)cc(OC)c12 (centres unmarked) | 14.7
32 | COC(=O)c1cccc(N=Cc2c(O)n(Cc3ccc(F)cc3)c(=O)[nH]c2=O)c1 | 15.3
33 | O=C(NCCSc1c[nH]c2ccccc12)c1ccc(Br)o1 | 10.2
34 | Cc1cccc(Nc2ccncc2S(=O)(=O)NC(=O)NC(C)C)c1 | 10
35 | O=C(NCC(c1ccco1)N1CCOCC1)c1ccc(F)cc1 (centres unmarked) | 5.48
36 | Cc1ccccc1-c1ncc(CN2CCN(C3CCCC3)C(CCO)C2)cn1 (centres unmarked) | 7.16
37 | O=C(NC1CC2CCCC(C1)N2Cc1ccccc1)c1cccc(Cl)c1 (centres unmarked) | -12.1
38 | O=c1c(-c2ccc(O)cc2)coc2cc(OC3OC(CO)C(O)C(O)C3O)cc(O)c12 (centres unmarked) | 7.24

Row | SMILES | hERG current change (%, negative = inhibition) at 1uM [%]
39 | Cc1ccc(C)c(Cn2c(CO)nc3ccccc32)c1 | 0.782
40 | CC(NC(=O)c1cccc(F)c1)C1CC2CCC1C2 (centres unmarked) | 13.7
41 | CCOc1ccc(/C=N/NC(=O)c2[nH]ncc2Br)c(O)c1 | 5.05
42 | Cc1ccccc1N1CCN(C2=NC(=O)/C(=C\c3cccs3)S2)CC1 | 9.44
43 | NNC(=O)c1cc2sccc2s1 | 14
44 | C=CCN1C(=O)C2C(C(=O)NC)C3(C)C=CC2(O3)C1C(=O)NCc1ccc(OC)cc1 (centres unmarked) | 9.93
45 | Cc1ccc(N2C(=O)C(CN3CCCC3)C2c2ccccc2)cc1 (centres unmarked) | -70.6
46 | Cc1ccc(CN2CCN(Cc3cccc(C)n3)CC2CCO)cc1 (centres unmarked) | -2.38
47 | O=C(NC1CCCCC1)C(c1cccnc1)N(C(=O)CCl)c1ccc(F)cc1 (centres unmarked) | 12.5
48 | O=C1CSC(c2cccc([N+](=O)[O-])c2)N1c1c(F)cccc1F (centres unmarked) | 4.55
49 | O=C(NCCC(=O)N(CCc1ccccc1)Cc1ccccc1)c1ccccc1Cl | -11.1
50 | Cc1cc([N+](=O)[O-])nn1CC(=O)N/N=C/c1ccccc1Br | 12.9
51 | CCS(=O)(=O)N1Cc2ccccc2CC1C(=O)N(C)Cc1ccc(OC)cc1OC (centres unmarked) | 8.41
52 | COC(=O)c1ccccc1NC(=O)CSc1nnc(COc2cccc(OC)c2)n1C | -6.49
53 | Cc1ccc2[nH]cc(CCNC(=O)c3cccnc3)c2c1 | -16.7
54 | COc1cc2c(cc1OC)C(C)N(C(=O)c1sc(-c3cnccn3)nc1C)CC2 (centres unmarked) | 7.65
55 | O=C(c1cccnc1)N1CCN(C/C=C/c2ccccc2)CC1 | 9.95
56 | CC(Oc1ccc2c3c(c(=O)oc2c1)CCCC3)C(=O)NCCN1CCOCC1 (centres unmarked) | 48.4
